About 14,000 (4.5%) of roughly 310,000 compounds showed an effect of 50% or more. The effect is printed as a negative number. The list shows a part of the results.
Target: human ether-à-go-go-related gene (hERG) potassium channel (human, UniProt Q12809)
Experiment: primary screen, population patch clamp on CHO cells stably expressing hERG
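Also: peak tail current of the secondary pulse compared with the same well before compound.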

human ether-à-go-go-related gene (hERG) potassium channel, sequence (Q12809 whole entry, looked up): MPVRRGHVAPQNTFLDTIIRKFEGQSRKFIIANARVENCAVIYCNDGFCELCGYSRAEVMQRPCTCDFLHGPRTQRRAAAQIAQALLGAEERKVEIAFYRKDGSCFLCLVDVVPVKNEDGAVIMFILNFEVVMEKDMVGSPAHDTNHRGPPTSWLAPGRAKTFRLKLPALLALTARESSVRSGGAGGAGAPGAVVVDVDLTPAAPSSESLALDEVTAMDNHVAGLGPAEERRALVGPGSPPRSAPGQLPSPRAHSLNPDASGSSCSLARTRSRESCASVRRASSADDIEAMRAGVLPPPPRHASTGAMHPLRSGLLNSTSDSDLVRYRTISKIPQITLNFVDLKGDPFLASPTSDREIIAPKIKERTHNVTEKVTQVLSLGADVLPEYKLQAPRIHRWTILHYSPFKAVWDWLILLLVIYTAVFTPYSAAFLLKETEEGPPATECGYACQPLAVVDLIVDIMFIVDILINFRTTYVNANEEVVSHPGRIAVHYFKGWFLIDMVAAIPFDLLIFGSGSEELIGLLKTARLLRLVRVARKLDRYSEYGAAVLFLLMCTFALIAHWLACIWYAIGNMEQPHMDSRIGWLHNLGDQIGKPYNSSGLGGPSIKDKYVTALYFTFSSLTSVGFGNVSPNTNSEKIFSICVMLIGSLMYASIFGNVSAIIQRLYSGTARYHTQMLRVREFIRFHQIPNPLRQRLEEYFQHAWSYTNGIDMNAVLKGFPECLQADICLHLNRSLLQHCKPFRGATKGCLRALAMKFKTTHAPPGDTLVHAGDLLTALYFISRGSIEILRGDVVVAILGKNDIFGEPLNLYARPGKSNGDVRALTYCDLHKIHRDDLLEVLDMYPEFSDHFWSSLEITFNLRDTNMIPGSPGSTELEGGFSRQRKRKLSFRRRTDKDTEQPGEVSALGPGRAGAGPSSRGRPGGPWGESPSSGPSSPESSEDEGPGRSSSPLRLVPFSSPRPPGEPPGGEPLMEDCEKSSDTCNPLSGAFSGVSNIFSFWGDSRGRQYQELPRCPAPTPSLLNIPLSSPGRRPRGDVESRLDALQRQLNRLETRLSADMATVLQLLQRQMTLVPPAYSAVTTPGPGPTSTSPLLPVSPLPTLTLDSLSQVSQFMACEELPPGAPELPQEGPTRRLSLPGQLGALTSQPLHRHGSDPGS

Structure (SMILES)	hERG current change (%, negative = inhibition) at 10uM
NC(=O)[C@@H]1CCCNc2c(F)cc([N+](=O)[O-])cc2C(=O)N[C@@H](CO)C(=O)NCC(=O)N1	11.5%
COc1ccc(Cl)cc1NS(=O)(=O)c1ccc2c(c1)NC(=O)CCS2	-14.2%
N#CNC(=Nc1cccc(Cl)c1)Oc1ccccc1	26.6%
CCc1cccc2c1NC(=O)C2(O)CC(=O)c1cccs1 (centres unmarked)	24.2%
O=C(NCC(=O)N(c1ccc2c(c1)OCO2)C(C(=O)NC1CCCC1)c1ccncc1)c1ccco1 (centres unmarked)	-7.25%
N#C/C(=C\c1ccc(OCc2ccccc2)cc1)C(=O)Nc1nc2c(s1)CCN(Cc1ccccc1)C2	19.4%
O=C(CCC1(C(=O)O)CCC(=O)NC1)NCc1ccccc1 (centres unmarked)	6.58%
Cc1ccc(NC(=O)CCNS(=O)(=O)c2cccs2)cc1F	16.8%
COc1ccc(N2CCN(C(=O)Cn3cnc4c(cnn4-c4ccccc4)c3=O)CC2)cc1	-14.5%
Cc1cc(OC(=O)c2ccccc2F)c([N+](=O)[O-])c(=O)[nH]1	11.5%
CC1(C)CC(=O)c2sc(NC(=O)CN3CCCCC3)nc2C1	2%
Cc1cc2c(ncn2C(C)C)c(N)c1C	-9.87%
O=C(/C=C/c1ccc(Br)cc1)NC(=S)NNC(=O)c1ccco1	7.88%
O=C1NC(=O)/C(=C\c2cn(CC(=O)N3CCOCC3)c3ccccc23)S1	11.7%
O=C(N1CCOCC1)C12CC3CC(C1)CC(n1cnc(Cl)n1)(C3)C2	-10.2%
CCn1cnnc1SCC(=O)c1c(N)n(C2CC2)c(=O)[nH]c1=O	13.4%
CCSc1nc2ccccc2n1CCC(=O)O	5.02%
COc1cccc(-c2nc(CS(=O)(=O)CC(=O)NCCN3CCOCC3)c(C)o2)c1	5.36%
CCOC(=O)c1c(NC(=O)C2Cc3ccccc3C(=O)O2)sc2c1CCCC2 (centres unmarked)	20.5%

Structure (SMILES)	hERG current change (%, negative = inhibition) at 10uM
O=S(=O)(c1c(Cl)sc(Cl)c1Br)N1CCCC1	-3.87%
CCOC(=O)c1cc(C#N)c(C)nc1N(CC)CC	-3.53%
COc1ccc(CCCC(=O)Nc2ccc(F)cc2)cc1	3.95%
S=c1[nH]nc(COc2ccccc2)n1/N=C/C=C/c1ccco1	3.42%
CCOC(=O)C1=C(Cn2cnc3ccccc32)NC(=O)NC1c1ccc(Cl)cc1 (centres unmarked)	-16%
O=C(c1ccc(Cl)cc1)c1nnc(-c2ccncc2)o1	13%
CN(C)CCNC(=O)c1ccc(Sc2ccc(Br)cc2)c([N+](=O)[O-])c1	-43.9%
COc1ccc(CNC(=O)c2ccccc2NC(=O)C2=CSCCO2)c(OC)c1	-21.8%
Cc1ccc(-c2cc(C(=O)OC3CCOC3=O)c3ccccc3n2)c(C)c1 (centres unmarked)	-17.7%
Cc1ccc(NC(=S)NNC(=O)c2cn(C)nc2C)cc1	6.59%
O=C(c1cccc(C(F)(F)F)c1)N1CCN(S(=O)(=O)c2ccc(Cl)s2)CC1	-30.8%
CC(=O)c1c(C)[nH]c(C(=O)OCC(=O)Nc2cc(Cl)ccc2[N+](=O)[O-])c1C	-14.3%
COc1ccc(Cc2nc3ccc(C(=O)NCC4COCCO4)cc3o2)cc1 (centres unmarked)	1.38%
COc1ccc(Cl)cc1S(=O)(=O)Nc1noc2ccccc12	10.9%
Cc1ccccc1C1c2[nH]c3ccccc3c2C[C@H]2C(=O)N(C3CCN(Cc4ccccc4)CC3)CC(=O)N12 (some centres unmarked)	-19.7%
Cc1ccc(N=Cc2c(O)cc(C)oc2=O)c(C)c1	13.6%
O=C(CSc1nc2ccccc2s1)Nc1ccc2c(c1)OCO2	-1.27%
COc1ccc(C)cc1NS(=O)(=O)c1cn(C)c(=O)n(C)c1=O	-2.16%
C=CCc1c(C)c(C#N)c2nc3ccccc3n2c1N1CCCCC1	10.2%

Structure (SMILES)	hERG current change (%, negative = inhibition) at 10uM
CCCC(=O)Nc1ccc(C(=O)NN=C(C2CC2)C2CC2)cc1	2.1%
FC(F)(F)c1cccc(NC(=S)Nc2cccc(NC(=S)Nc3cccc(C(F)(F)F)c3)n2)c1	-4.29%
COc1ccc(CCNC(=O)c2cccc(S(=O)(=O)N3CCc4ccccc4C3)c2)cc1	-24.6%
CS(=O)(=O)N1CCC(C(=O)N2CCc3ccccc3C2)CC1	-3.19%
COc1cc(Oc2ccccc2)nc(N)n1	-9.37%
Cc1ccc(S(=O)(=O)Cn2nnnc2C(c2ccccn2)N2CCN(c3ccccc3)CC2)cc1 (centres unmarked)	-2.76%
CC1CCCC(NC(=O)C2CCN(S(=O)(=O)N3CCCCC3)CC2)C1C (centres unmarked)	7.85%
O=C(O)c1cc(-c2c[nH]c3ccccc23)nc2cc3ccccc3cc12	3%
COc1ccc(Oc2nc(C)cc(C)c2C#N)cc1	0.0919%
CSc1nnc([C@H](C)NC(=O)OC(C)(C)C)o1	-1.25%
O=C(CN1CCN(S(=O)(=O)c2ccccc2)CC1)Nc1ccccc1Cl	-6.93%
CCOC(=O)c1c(NC(=O)CSc2nnc(C)s2)sc2c1CCC(C)C2 (centres unmarked)	21.5%
Cc1ccccc1/C=N/n1c(-c2ccccn2)n[nH]c1=S	14.7%
CCOC(=O)C1C(=O)C=C(c2ccc(OC)cc2)CC1c1ccco1 (centres unmarked)	-19.3%
COC(=O)c1ccccc1NS(=O)(=O)c1ccc(NC(C)=O)cc1	1.46%
Nc1nonc1-n1nnc(C(=O)N/N=C/c2ccccc2Cl)c1CN1CCOCC1	-3.45%
COc1ccc(CC(NC(=O)c2ccccc2)C(=O)NCC(=O)O)cc1 (centres unmarked)	9.31%
CC(C)CCN(N=O)[C@@H](Cc1ccccc1)CN(N=O)[C@@H](Cc1ccccc1)CN(C)N=O.[Na+]	-6.51%

From article PMC4336329 (PLoS ONE, 2015)
